This is an account of results in publication PMC4336329 (PLoS ONE, 2015).

Screen size: about 310,000 compounds; about 2,200 (0.71%) showed an effect of 50% or more. Effects have a minus sign here. Some of the results follow.

Chain of human ether-à-go-go-related gene (hERG) potassium channel (Q12809 whole entry, looked up): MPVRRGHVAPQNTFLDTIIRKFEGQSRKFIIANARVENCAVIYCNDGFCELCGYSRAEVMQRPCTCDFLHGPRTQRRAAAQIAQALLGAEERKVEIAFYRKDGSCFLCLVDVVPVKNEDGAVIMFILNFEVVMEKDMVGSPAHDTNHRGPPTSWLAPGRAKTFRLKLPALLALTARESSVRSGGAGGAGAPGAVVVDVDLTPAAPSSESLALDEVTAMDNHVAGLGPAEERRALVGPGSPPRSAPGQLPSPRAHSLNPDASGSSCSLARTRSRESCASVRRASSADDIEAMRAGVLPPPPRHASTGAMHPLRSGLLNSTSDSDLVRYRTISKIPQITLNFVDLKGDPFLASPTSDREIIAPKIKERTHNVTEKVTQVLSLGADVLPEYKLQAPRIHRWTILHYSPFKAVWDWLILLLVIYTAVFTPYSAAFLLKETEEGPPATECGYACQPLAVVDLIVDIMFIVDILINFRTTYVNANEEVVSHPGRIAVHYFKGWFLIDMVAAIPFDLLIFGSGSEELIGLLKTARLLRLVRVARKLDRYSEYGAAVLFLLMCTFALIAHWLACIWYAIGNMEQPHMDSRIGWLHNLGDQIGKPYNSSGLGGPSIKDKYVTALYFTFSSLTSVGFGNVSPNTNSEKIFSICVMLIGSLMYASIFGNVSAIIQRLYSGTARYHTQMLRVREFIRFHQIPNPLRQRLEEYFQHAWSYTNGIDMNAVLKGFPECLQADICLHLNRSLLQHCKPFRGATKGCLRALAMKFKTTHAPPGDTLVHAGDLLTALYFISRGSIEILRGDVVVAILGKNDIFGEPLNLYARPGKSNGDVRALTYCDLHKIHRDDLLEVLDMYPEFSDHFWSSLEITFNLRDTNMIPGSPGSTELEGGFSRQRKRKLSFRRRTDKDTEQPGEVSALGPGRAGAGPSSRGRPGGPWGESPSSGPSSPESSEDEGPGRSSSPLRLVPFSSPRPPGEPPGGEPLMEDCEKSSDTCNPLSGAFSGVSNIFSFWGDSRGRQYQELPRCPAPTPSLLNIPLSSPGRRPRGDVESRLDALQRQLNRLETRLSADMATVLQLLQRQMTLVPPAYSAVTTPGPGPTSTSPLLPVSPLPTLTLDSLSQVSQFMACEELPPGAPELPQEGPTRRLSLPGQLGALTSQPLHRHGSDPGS

The test has as its target human ether-à-go-go-related gene (hERG) potassium channel (human, UniProt Q12809). As to the kind of experiment: primary screen, population patch clamp on CHO cells stably expressing hERG.
For `COc1ccc(CN2CC(C(=O)NCCCN3CCN(Cc4ccccc4)CC3)CC2=O)cc1` (stereo not drawn), the “hERG current change (%, negative = inhibition) at 1uM” value is -17.3%.

In the case of `O=C1CC(=O)NC(SCC(=O)Nc2ccccc2[N+](=O)[O-])=N1`, the “hERG current change (%, negative = inhibition) at 1uM” value amounted to 11.2%. Take `COc1ccc(NC(=O)C2C3C=CC4(CN(Cc5cccnc5)C(=O)C24)O3)c(OC)c1` (stereo not drawn): the “hERG current change (%, negative = inhibition) at 1uM” value stood at 10.1%.

In the case of `O=C(c1cccnc1)N1N=C(C2CC2)CC1(O)C(F)(F)F` (stereo not drawn), the “hERG current change (%, negative = inhibition) at 1uM” value came to 14.2%. In the case of `CC(=O)NCCCC(=O)NC(CCC(=O)OCc1ccccc1)C(=O)OCc1ccccc1` (stereo not drawn), the “hERG current change (%, negative = inhibition) at 1uM” value is recorded as 7.22%. Next, `CN(CC(=O)N1CCCc2c1c(=O)oc1ccc(O)cc21)Cc1ccccc1`: -38.4%; `CCCCc1ccc(CC2S/C(=C(\C#N)C(=O)N3CCOCC3)N(c3ccccc3)C2=O)cc1` (stereo not drawn): 11.2%; `Cc1ccccc1CSc1nc2n(n1)C(c1cccs1)C1=C(CCCC1=O)N2` (stereo not drawn): 5.9%. Next, `Cc1ccc(-c2noc(CN3CCN(c4ccccc4F)CC3)n2)cc1`: 10.9%; `COC(=O)c1sccc1NC(=S)Nc1cc(OC)ccc1OC`: 5.04%.

On to `Cc1nnc2n1CCCCC2`, for which the “hERG current change (%, negative = inhibition) at 1uM” value was 14.4%. Next, `Cn1c(=O)c(-c2ccccc2[N+](=O)[O-])c(Cl)c2ccccc21`: 4.96%; `O=C(/C=C/Nc1ccccc1F)c1cccs1`: 9.7%. In the case of `CSCC[C@H](N)C(=O)N1CCC(C(=O)N[C@@H](C)C(=O)NCc2ccc(F)cc2)CC1`, the “hERG current change (%, negative = inhibition) at 1uM” value came to 4.39%.

`Cc1cnc(C(=O)OCC(=O)Nc2cc(Cl)cc(Cl)c2)cn1`: the “hERG current change (%, negative = inhibition) at 1uM” value is reported as 23.8%. Next, `O=C(c1cccs1)N1CCN(c2ccc([N+](=O)[O-])cc2F)CC1`: -21.3%. Next, `O=C(CNC(=O)C12CC3CC(CC(C3)C1)C2)NC1=NCCS1`: 12.3%; `CCOC(=O)CON1C(=O)C(=O)N(OCC(=O)OCC)[C@H]2CCCC[C@H]21`: 11.8%. Next, `COCC(C)N=C1NN=C(c2cc(C)n(Cc3ccccc3Cl)c2C)CS1` (stereo not drawn): 4.93%. As to `COc1ccc(S(=O)(=O)NCc2csc(-c3cccnc3)n2)cc1`, the “hERG current change (%, negative = inhibition) at 1uM” value is listed as 4.72%. Next, `CCCCCC1CC(CC/C(C)=N/NC(N)=O)C(=O)O1` (stereo not drawn): -5.45%; `C=CCn1c(SCC(=O)NC2CCCCC2)nnc1C1CCCCC1`: 5.34%; `O=C(NCCN1CCOCC1)c1ccc2c(c1)N(Cc1ccc(F)cc1)C(=O)c1ccccc1S2(=O)=O`: 13.2%. Next, `Cc1ccc(CCNC(=O)C2CCC(CNc3c(N4CCCC4)c(=O)c3=O)CC2)cc1` (stereo not drawn): 14.4%. Next, `O=[N+]([O-])c1cccc(C(=S)N2CCN(c3ccc(F)cc3)CC2)c1`: 2.44%. Turning to `O=C(C1=NN[C@@H]2C(=O)N(c3cccc(F)c3)C(=O)[C@H]12)c1cnccn1`, the “hERG current change (%, negative = inhibition) at 1uM” value worked out at 6.48%. Next, `N#Cc1cc(-c2ccccc2)cnc1Cl`: 9.01%; `CCOC(=O)C(C)Oc1cccc2c(=O)n(CC(=O)N3CCc4ccccc43)ccc12` (stereo not drawn): 5.03%. Next, `CCOC(=O)CN1C(=O)C(=O)N(Cc2ccccc2)C1=O`: 14.2%; `CC(=O)Nc1ccc(S(=O)(=O)CCC#N)cc1`: 4.04%; `O=C(c1ccccc1Cc1ccccc1)N1CCN(S(=O)(=O)c2ccccc2Br)CC1`: 6.13%. Next, `COCCCn1c(=O)c2ccccc2n(Cc2ccc(C)cc2)c1=O`: 1.64%; `COc1ccc(OCc2cc(C(=O)NCCN3CCCc4ccccc43)no2)c(Cl)c1`: 11%; `Cc1ccccc1-c1nc(CN2CCN(C(=O)c3ccco3)CC2)c(C)o1`: 0.875%.

With `C=CCN(c1ccccc1)S(=O)(=O)c1cccc(C(=O)Nc2cc(C)ccn2)c1`, the “hERG current change (%, negative = inhibition) at 1uM” value is recorded as -7.28%. Next, `COc1ccccc1C(=O)Nc1ccc(Br)cc1C`: 30.8%. Consider `Cc1ccc(-c2n[nH]c(=O)c3ccccc23)cc1N`, for which the “hERG current change (%, negative = inhibition) at 1uM” value was 5.08%. Next, `CCC(C)[C@H](NC(=O)NCCCN1CCOCC1)C(=O)OC` (stereo partly drawn): 6.75%; `COc1ccc(CCNC(=O)c2cc(-c3ccccc3)c(N3CCOCC3)s2)cc1OC`: 13.2%. Next, `CCOc1ccc2nc(Cl)c(CN(C(C)=O)C3CCCCC3)cc2c1`: 11.5%; `COc1ccccc1NC(=O)COC(=O)c1ccc2c(c1)nc(C)n2-c1ccccc1`: 5.48%.

Consider `COCC(=O)Nc1ccc(OCc2ccccc2)cc1`, for which the “hERG current change (%, negative = inhibition) at 1uM” value is on record as 13.2%. Next, `COC(=O)NCCc1cc(OC)c(OC)cc1S(=O)(=O)N1CC(=O)Nc2ccccc21`: 3.63%. Turning to `COc1ccc(Cc2nnc(NC(=O)Nc3ccccc3F)s2)cc1`, the “hERG current change (%, negative = inhibition) at 1uM” value is 15.2%. Turning to `Cn1nnc(NC(=S)NC(=O)c2cccs2)n1`, the “hERG current change (%, negative = inhibition) at 1uM” value came out at 3.9%.
